PMC4336329 (PLoS ONE, 2015)
About 2,200 (0.71%) of roughly 310,000 compounds showed an effect of 50% or more. Effects have a minus sign here. The list shows a part of the results.

These molecules were tested against human ether-à-go-go-related gene (hERG) potassium channel (human, UniProt Q12809) (assay: primary screen, population patch clamp on CHO cells stably expressing hERG).
human ether-à-go-go-related gene (hERG) potassium channel, sequence (Q12809 whole entry, looked up): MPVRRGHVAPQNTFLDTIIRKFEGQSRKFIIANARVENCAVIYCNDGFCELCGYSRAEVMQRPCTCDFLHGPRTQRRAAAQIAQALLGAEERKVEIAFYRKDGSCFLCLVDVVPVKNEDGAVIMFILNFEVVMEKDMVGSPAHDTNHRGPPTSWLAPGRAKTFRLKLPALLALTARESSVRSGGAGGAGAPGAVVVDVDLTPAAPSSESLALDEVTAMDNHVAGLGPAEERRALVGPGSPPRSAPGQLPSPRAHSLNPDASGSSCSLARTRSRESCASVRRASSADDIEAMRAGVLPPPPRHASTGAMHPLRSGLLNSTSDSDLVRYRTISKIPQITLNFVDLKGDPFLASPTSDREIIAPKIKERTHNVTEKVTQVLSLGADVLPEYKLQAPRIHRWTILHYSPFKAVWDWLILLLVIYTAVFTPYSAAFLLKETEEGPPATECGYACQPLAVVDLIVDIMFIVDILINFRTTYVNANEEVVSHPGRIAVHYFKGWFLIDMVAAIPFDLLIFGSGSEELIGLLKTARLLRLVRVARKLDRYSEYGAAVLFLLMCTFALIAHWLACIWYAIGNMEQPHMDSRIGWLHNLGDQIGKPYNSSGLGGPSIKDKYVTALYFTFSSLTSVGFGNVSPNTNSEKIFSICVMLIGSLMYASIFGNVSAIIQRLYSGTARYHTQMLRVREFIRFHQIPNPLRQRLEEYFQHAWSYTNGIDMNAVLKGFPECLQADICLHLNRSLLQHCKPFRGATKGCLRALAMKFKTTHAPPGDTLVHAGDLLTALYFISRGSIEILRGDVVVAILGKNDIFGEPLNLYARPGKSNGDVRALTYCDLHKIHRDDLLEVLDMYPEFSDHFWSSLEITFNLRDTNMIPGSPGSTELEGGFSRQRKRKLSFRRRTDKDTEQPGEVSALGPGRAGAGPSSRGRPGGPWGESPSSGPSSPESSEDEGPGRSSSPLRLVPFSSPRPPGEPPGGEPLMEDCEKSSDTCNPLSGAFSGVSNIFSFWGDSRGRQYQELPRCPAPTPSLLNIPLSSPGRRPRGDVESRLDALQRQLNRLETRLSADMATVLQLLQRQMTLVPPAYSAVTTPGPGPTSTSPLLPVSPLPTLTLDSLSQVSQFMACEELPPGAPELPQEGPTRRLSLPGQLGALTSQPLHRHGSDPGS

Going from `O=C(c1cc2ccccc2[nH]1)N(Cc1cccnc1)CC1CCCN(C2CCCCC2)C1` (centres unmarked) to `C[C@@H]1CN(C2CCC(C#N)(c3ccc(F)cc3)CC2)CC[C@]1(C(=O)O)c1ccccc1.Cl` (some centres unmarked), the “hERG current change (%, negative = inhibition) at 1uM” value rises from -49.6% to 2.33%.

Compared with `CCOC(=O)C(/C=C(\C#N)C(=O)OCC)=C(/N)N1CCN(c2c(C)cccc2C)CC1`, `CCOC(=O)C1CCN(C(=O)Cc2c(F)cccc2Cl)CC1` is lower in “hERG current change (%, negative = inhibition) at 1uM” value: 13.4% for the first, 11.3% for the second.

Going from `CCOC(=O)c1ccc(NC(=O)CSc2nncn2-c2cccnc2)cc1` to `Cc1ccc(SCC(=O)Nc2cccc(C)c2)cc1`, the “hERG current change (%, negative = inhibition) at 1uM” value falls from 14% to 7.49%.

Compared with `Cc1ccccc1NS(=O)(=O)c1ccc(C(=O)N2CCN(c3ccccn3)CC2)cc1`, `O=C(c1ccc2c(c1)CCN2S(=O)(=O)c1ccccc1)N1CCN(c2ccc(F)cc2)CC1` is higher in “hERG current change (%, negative = inhibition) at 1uM” value: 5.6% for the first, 6.83% for the second.

Compared with `COc1ccc(/C=C/C(=O)c2ccc(NC3=NCCCS3)cc2)cc1OC`, `COc1ccc(C(=O)Nc2ccccc2SCc2cc(=O)n3nc(C)sc3n2)cc1OC` is higher in “hERG current change (%, negative = inhibition) at 1uM” value: 3.64% for the first, 11.3% for the second.

Compared with `Cc1cccnc1NC(=O)CCCNC(=O)c1ccc(Cl)cc1`, `CCCNC(=O)CCn1nc(-c2ccc(Cl)cc2)c2ccccc2c1=O` is higher in “hERG current change (%, negative = inhibition) at 1uM” value: -4.42% for the first, 1.68% for the second.

Going from `COc1ccc(CCC(=O)NC2CCCCC2)cc1` to `COc1ccc(C(=O)OCC(=O)NC(=O)NC2CCCC2)cc1OC`, the “hERG current change (%, negative = inhibition) at 1uM” value rises from -9.69% to 4.72%.

Going from `CN(C)S(=O)(=O)c1ccc(NC(=O)CN2CCN(C(c3ccccc3)c3ccccc3)CC2)cc1` to `CN(c1ccccc1C(=O)Nc1ccc(S(=O)(=O)N2CCOCC2)cc1)S(C)(=O)=O`, the “hERG current change (%, negative = inhibition) at 1uM” value falls from 8.88% to -6.46%.

First: COc1ccccc1NC(=O)c1ccccc1NS(=O)(=O)c1cccs1
Second: CCN(c1ccccc1)S(=O)(=O)c1cc(NC(=O)Nc2ccccc2C#N)ccc1Cl
The “hERG current change (%, negative = inhibition) at 1uM” value of the first is higher: 10.2% for the first, 3.54% for the second.

Compared with `CCn1cc(CN2CCC(n3nccc3NC(=O)c3ccc4c(c3)OCO4)CC2)c(C)n1`, `O=C(Nc1ccnn1C1CCN(Cc2cc(Cl)ccc2O)CC1)c1cccnc1` is higher in “hERG current change (%, negative = inhibition) at 1uM” value: 10.9% for the first, 13.1% for the second.

First: Cc1c(Cl)cccc1NC(=O)CCN1CCN(C)CC1
Second: CC(C)CN1CCN(Cc2ccc(F)cc2Cl)CC1CCO (centres unmarked)
The “hERG current change (%, negative = inhibition) at 1uM” value of the first is lower: 5.03% for the first, 5.92% for the second.

Going from `O=C(CSc1nnc(NC(=O)c2c(F)cccc2Cl)s1)Nc1ccccc1F` to `COc1ccccc1NC(=O)Nc1nnc(CC(=O)Nc2cccc(C)c2)s1`, the “hERG current change (%, negative = inhibition) at 1uM” value falls from 13.3% to 5.74%.

First: c1csc(-c2ncc3ccccn23)c1
Second: COC(=O)c1cnc2ccccc2n1
The “hERG current change (%, negative = inhibition) at 1uM” value of the first is lower: 12.1% for the first, 13.8% for the second.

First: Cl.O=[N+]([O-])c1cc(Cl)cc(C2=NCCN2)c1
Second: Cc1ccc(CNC(=O)C2CC(c3cccc([N+](=O)[O-])c3)=NO2)o1 (centres unmarked)
The “hERG current change (%, negative = inhibition) at 1uM” value of the first is higher: 0.328% for the first, -1.58% for the second.

Compared with `COc1ccc(S(=O)(=O)NNc2nc(C)cc(C)n2)cc1Br`, `COc1ccc(Cl)cc1NS(=O)(=O)c1c(C)nc2sccn2c1=O` is higher in “hERG current change (%, negative = inhibition) at 1uM” value: 11.3% for the first, 11.5% for the second.

Compared with `CN(c1ccccc1C(=O)N1CCc2ccccc2C1)S(C)(=O)=O`, `O=C(Nc1ccccc1C(=O)NCCCN1CCOCC1)c1ccccc1` is higher in “hERG current change (%, negative = inhibition) at 1uM” value: 8.89% for the first, 13% for the second.

First: CS(=O)(=O)NN1C(=O)c2ccccc2NC12CCCC2
Second: O=c1[nH]c2ccc(S(=O)(=O)Nc3ccccc3O)cc2[nH]1
The “hERG current change (%, negative = inhibition) at 1uM” value of the first is lower: 13.7% for the first, 19.1% for the second.

Compared with `NNC(=O)c1oc2nc(-c3ccccc3)cc(-c3ccccc3)c2c1N`, `O=C(N/N=C(\Cc1ncc[nH]1)c1ccccc1)c1ccccc1` is higher in “hERG current change (%, negative = inhibition) at 1uM” value: 11.1% for the first, 14.2% for the second.

First: CCc1ccc(C(=O)C(C)OC(=O)Cn2[nH]c(=O)c3ccccc3c2=O)cc1 (centres unmarked)
Second: Cc1ccc(CC2C(=O)N(c3ccccc3)C(=O)C2C)cc1 (centres unmarked)
The “hERG current change (%, negative = inhibition) at 1uM” value of the first is lower: 8.79% for the first, 10.2% for the second.

Going from `O=C(COC(=O)c1cc(S(=O)(=O)N2CCOCC2)c(Cl)cc1Cl)c1ccc[nH]1` to `COC(=O)COc1ccc(S(=O)(=O)N2CCOCC2)cc1`, the “hERG current change (%, negative = inhibition) at 1uM” value rises from 4.82% to 13.1%.

Compared with `COc1cc(Cl)ccc1NC(=S)N(CCN(C)C)C(C)c1ccncc1` (centres unmarked), `COc1cc(-c2nc(-c3ccncc3)no2)cc(OC)c1OC` is higher in “hERG current change (%, negative = inhibition) at 1uM” value: 0.055% for the first, 12.2% for the second.

Going from `CCOC(=O)C(CC)Sc1nc2c(c(=O)[nH]c(=O)n2C)n1C/C=C(/C)Cl` (centres unmarked) to `CCOC(=O)c1cc(-c2ccc(C)cc2)n(CC(=O)NCc2ccco2)c1C`, the “hERG current change (%, negative = inhibition) at 1uM” value rises from -56.9% to 11.3%.

Going from `Cc1c(C=C2C(=O)N(C)C(=O)N(C)C2=O)c(=O)n(-c2ccccc2)n1C` to `Cc1ccc(N2C(=O)C3ON(c4ccccc4)C(c4ccncc4)C3C2=O)c(C)c1` (centres unmarked), the “hERG current change (%, negative = inhibition) at 1uM” value falls from 16.3% to 0.87%.

First: COC(=O)c1ccccc1NC(=O)C12CC3CC(C1)CC(n1cnc(Cl)n1)(C3)C2
Second: CC(=O)N/C(=C\c1ccccc1)C(=O)N1CCOCC1
The “hERG current change (%, negative = inhibition) at 1uM” value of the first is lower: -0.0768% for the first, 15.1% for the second.

First: C/C(=C(\C#N)C(=O)NCCCN1CCOCC1)N(C)C
Second: CC(C)(C)c1ccc(OCC(=O)NCC(c2cccs2)N2CCOCC2)cc1 (centres unmarked)
The “hERG current change (%, negative = inhibition) at 1uM” value of the first is higher: 12.2% for the first, 2.85% for the second.

First: Cc1c(CC(=O)O)c(=O)oc2c(C)c3occ(-c4ccccc4)c3cc12
Second: Cc1cc(C)cc(OCC(=O)NNC(=O)c2cc3ccccc3o2)c1
The “hERG current change (%, negative = inhibition) at 1uM” value of the first is higher: 19.9% for the first, 10.5% for the second.

First: CC(=O)c1ccc(N2CCCCC2)c(F)c1
Second: Cl.O=[N+]([O-])c1ccc(N2CCNCC2)cc1N1CCCCCC1
The “hERG current change (%, negative = inhibition) at 1uM” value of the first is higher: 18.2% for the first, -11.7% for the second.

Going from `O=C1C=C(c2ccc3[nH]ccc3c2)C[C@@H](c2ccc(Cl)cc2)C1` to `Cc1cccc(N(C)S(=O)(=O)c2ccc(-c3cnc(C4CC4)o3)cc2)c1`, the “hERG current change (%, negative = inhibition) at 1uM” value rises from -0.759% to 13.5%.

Compared with `O=C(COc1ccc2cc(Br)ccc2c1Br)N1CCOCC1`, `Cc1cc(F)ccc1NS(=O)(=O)c1c(C(=O)N2CCOCC2)c(C)n(C)c1C` is higher in “hERG current change (%, negative = inhibition) at 1uM” value: 12.6% for the first, 15.2% for the second.

First: NS(=O)(=O)c1ccc(CNC(=O)c2cccc(S(=O)(=O)N3CCc4ccccc43)c2)cc1
Second: Cc1c(C(=O)O)cccc1-n1c(C)cc(/C=C(/C#N)C(=O)NCc2ccccc2)c1C
The “hERG current change (%, negative = inhibition) at 1uM” value of the first is lower: 8.83% for the first, 24.1% for the second.

First: O=C(Cc1cc(=O)[nH][nH]1)N/N=C/C=C/c1ccccc1
Second: Cc1ccc(NC(=O)CC2NCCN(Cc3ccccc3)C2=O)cc1 (centres unmarked)
The “hERG current change (%, negative = inhibition) at 1uM” value of the first is lower: 7.68% for the first, 14.1% for the second.

Compared with `CN(C)c1ccc(CNCC2CCCO2)cc1.Cl` (centres unmarked), `O=C(NCCc1ccc(Cl)cc1)C1CCN(c2ncccn2)CC1` is higher in “hERG current change (%, negative = inhibition) at 1uM” value: 10.8% for the first, 13.9% for the second.

Going from `CC(C)(O)C#Cc1ccc(C(=O)NC(CCCNC(N)=O)C(=O)O)s1` (centres unmarked) to `CC(C)(O)C#Cc1ccc(C(=O)N2CCC(CCC(=O)NC3CC3)CC2)cc1`, the “hERG current change (%, negative = inhibition) at 1uM” value falls from 14.7% to 1.5%.

Compared with `COc1cccc(NC(=O)CNC(=O)[C@@H]2Cc3ccccc3CN2C(=O)OC(C)(C)C)c1`, `CCCC(=O)Nc1cccc(NC(=O)c2ccc([N+](=O)[O-])cc2Cl)c1` is lower in “hERG current change (%, negative = inhibition) at 1uM” value: 12.8% for the first, 6.75% for the second.

Going from `CCC(C)(C)n1nnnc1C(C(C)C)N(Cc1ccco1)Cc1cc2cc3c(cc2[nH]c1=O)OCO3` (centres unmarked) to `CCN(Cc1ccc(OC)c(COC)c1)CC1CCCN(CCc2cccc(F)c2)C1` (centres unmarked), the “hERG current change (%, negative = inhibition) at 1uM” value falls from 2.53% to -4.29%.

Compared with `CS(=O)(=O)N(CCC#N)Cc1ccc(C=O)o1`, `Cc1ccc(S(=O)(=O)N2CCC(C(=O)OCC(=O)N(CCC#N)c3ccc(F)cc3)CC2)cc1C` is lower in “hERG current change (%, negative = inhibition) at 1uM” value: 14.6% for the first, 0.922% for the second.

First: O=C(NCN1CCCCC1)c1cccnc1
Second: CCOC(=O)C1CCCN(c2c(NCCCN(C)Cc3ccccc3)c(=O)c2=O)C1 (centres unmarked)
The “hERG current change (%, negative = inhibition) at 1uM” value of the first is higher: 8.57% for the first, -3.52% for the second.

Compared with `Cc1cc(OCc2cc(C(=O)NCC3(C)COC3)no2)cc(C)c1Cl`, `COc1cc(OC)cc(C(=O)Nc2cc(NC(=O)c3ccco3)ccc2OC)c1` is higher in “hERG current change (%, negative = inhibition) at 1uM” value: 4.9% for the first, 9.13% for the second.

Compared with `CC(Oc1ccc(F)cc1)C(=O)Nc1cc(C(F)(F)F)ccc1-n1cncn1` (centres unmarked), `COc1ccc(C(=O)NN(c2ccccc2)c2ccccc2)cc1` is higher in “hERG current change (%, negative = inhibition) at 1uM” value: -8.26% for the first, 3.89% for the second.

Going from `CCOc1ccc(/C(CC)=N/NC(=O)C2(C)CC2(Br)Br)cc1` (centres unmarked) to `CC1CCCCN1CCCNc1ccc(C(CC(N)=O)NC(=O)Cc2ccc(Br)cc2)cc1[N+](=O)[O-]` (centres unmarked), the “hERG current change (%, negative = inhibition) at 1uM” value falls from 13.8% to 9.55%.

First: CC12C=CC(=O)C=C1CCC1C3CCC(O)(C(=O)CO)C3(C)CC3OC312 (centres unmarked)
Second: COc1ccc(C2C(C(=O)N3CCC4(CC3)OCCO4)CC(=O)N2c2ccc(OC)cc2)cc1 (centres unmarked)
The “hERG current change (%, negative = inhibition) at 1uM” value of the first is higher: 12.3% for the first, 5.17% for the second.

First: CCC(=O)N1CCN(c2cc(N3CCN(C)CC3)c(F)cc2[N+](=O)[O-])CC1
Second: COc1cc(OC)cc(-c2c(-c3ccsc3)c3cc(Br)ccc3n2C)c1
The “hERG current change (%, negative = inhibition) at 1uM” value of the first is lower: 2.64% for the first, 16.5% for the second.

Compared with `c1ccc2sc(SCSc3nc4ccccc4s3)nc2c1`, `COc1cc(-c2nc3ccccn3c2/N=C/c2cc(OC)c(O)cc2Cl)ccc1O` is lower in “hERG current change (%, negative = inhibition) at 1uM” value: 14.1% for the first, 3.29% for the second.
